Assay results published in PubChem BioAssay (Tox21).
Several values for one entry are separate records, joined by “and”; a condition that tells them apart may be missing. Equal entries are not always repeated. This list was built around the results that the source calls inconclusive (neither active nor inactive); the mix of calls is not that of the screen. No potency is given beside an inconclusive call; the fits are too rough. Some compounds were tested as several samples or in several runs, with calls that do not always agree. Activity calls are given as the source filed them. Calls come from the whole dose curve; as a rule, active = well fitted curve in the direction sought with a large enough effect in the repeat runs; inconclusive = weak or mixed curves; inactive = no such curve, though single readings can be large; an effect the other way counts as inactive or inconclusive.

assay: A CellTox Green Cytotoxicity Assay to monitor cytotoxicity in HepG2 cells - 16 hour (AID 1224876); conditions: CellTox Green fluorescence; series mostly up to 76.8 µM; note: nearly all actives have a fitted effect of over 45% in size
In short: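 First, HepG2 cells (600/well) mixed with reagent were plated; second, after 5 h at 37 C they received compounds via pintool; third, fluorescence was measured at 0 h through 40 h at 8 h intervals.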
Potency is the fitted concentration of half-maximal effect; tags give direction and shape of the fitted curve.

Row | SMILES | Potency
1 | O=S(=O)(O)C(F)(F)C(F)(F)C(F)(F)C(F)(F)F | inconclusive [activator, single point]
2 | Cc1cnc2c(C(=O)O)c(Cl)ccc2c1 | inactive
3 | CN(C)C(=S)[S-].CN(C)C(=S)[S-].[Cu+2] | active: 4.23 µM
4 | CCCCCCCCCCCC[N+](C)(C)CCOc1ccccc1 | active: 24.6 µM and active: 19 µM
5 | CCOC(=O)c1ccccc1N | active: 49 µM
6 | N#CC(CCc1ccc(Cl)cc1)(Cn1cncn1)c1ccccc1 (stereo not drawn) | active: 21.9 µM
7 | CCC(C)(C)O | inactive
8 | CNC(C)Cc1ccccc1OC (stereo not drawn) | inconclusive [activator, partial curve, poor fit]
9 | Oc1c(Cl)c(Cl)cc(Cl)c1Cl | inactive
10 | COP(=S)(OC)Oc1ccc(Sc2ccc(OP(=S)(OC)OC)cc2)cc1 | inactive
11 | CC(c1ccccc1)(c1ccc(O)cc1)c1ccc(O)cc1 | inconclusive [activator, partial curve, poor fit]
12 | Nc1n[nH]c(N)n1 | inactive
13 | Cc1c([N+](=O)[O-])cc2c(c1[N+](=O)[O-])C(C)(C)CC2(C)C | inactive
14 | C/C=C/c1ccc2c(c1)OCO2 | inactive

assay: qHTS RealTime-Glo MT Cell Viability Assay in HepG2 cells - 32 hour (AID 1224877); conditions: RealTime-Glo luminescence; series mostly up to 76.8 µM; note: nearly all actives have a fitted effect of over 55% in size
In short: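 Tox21 10K library screened in qHTS format on HepG2 cells carrying RealTime-Glo reagents. Compounds were added after a 5 h preincubation, and the luminescent signal from continuous culture was measured repeatedly during 40 h treatment.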

Row | SMILES | Potency
15 | CCN(CC)c1c([N+](=O)[O-])cc(C(F)(F)F)c(N)c1[N+](=O)[O-] | inconclusive [cytotoxic, partial curve, poor fit]
16 | CCCCn1cc[n+](C)c1 | active: 44.3 µM
17 | C=CCOC(Cn1ccnc1)c1ccc(Cl)cc1Cl (stereo not drawn) | inconclusive [cytotoxic, partial curve, poor fit]
18 | CC[N+]1(C)CCCC1 | inactive
19 | C/C(=C\c1ccccc1)[N+](=O)[O-] | inconclusive [cytotoxic, single point]
20 | O=C(N[C@H](c1ccccc1)[C@@H]1CN2CCC1CC2)c1c(Cl)ccc(C(F)(F)F)c1Cl | inconclusive [cytotoxic, partial curve, poor fit]
21 | Clc1ccc(CO/N=C(\Cn2ccnc2)c2ccc(Cl)cc2Cl)c(Cl)c1 | inconclusive [cytotoxic, partial curve]
22 | O=C(O)C(Br)(Br)Br | inconclusive [cytotoxic, single point]
23 | CC(Cl)Cl | inactive
24 | COc1cccc(C(=O)NN(C(=O)c2cc(C)cc(C)c2)C(C)(C)C)c1C | inconclusive [cytotoxic, partial curve, poor fit]
25 | CCC[N+]1(C)CCCC1 | active: 49.3 µM
26 | O=C(CCl)C(Cl)Cl | inconclusive [cytotoxic, partial curve]
27 | C[C@]12C/C(=C/O)C(=O)C[C@@H]1CC[C@@H]1[C@@H]2CC[C@@]2(C)[C@H]1CC[C@]2(C)O | inconclusive [cytotoxic, single point]
28 | C[N+](C)(C)CCOC(=O)C(O)(c1ccccc1)c1ccccc1 | inconclusive [cytotoxic, single point]
29 | COC(N)=O | inactive
30 | CCC(=O)C(CC(C)N(C)C)(c1ccccc1)c1ccccc1 (stereo not drawn) | inconclusive [cytotoxic, partial curve, poor fit]
31 | O=C(O)C(F)(F)C(F)(F)C(F)(F)C(F)(F)C(F)(F)C(F)(F)C(F)(F)C(F)(F)C(F)(F)C(F)(F)F | inconclusive [cytotoxic, single point]
32 | ClP(Cl)(Cl)(Cl)Cl | inconclusive [cytotoxic, single point]
33 | CCOc1cc(C=O)ccc1O | inactive
34 | Clc1cccc(SC2CCNCC2)n1 | inactive
35 | C[C@]12CCC(=O)C=C1CC[C@@H]1[C@@H]2CC[C@@]2(C)[C@H]1CC[C@]2(C)O | inconclusive [cytotoxic, partial curve, poor fit]
36 | O=C(CCl)c1ccccc1 | inconclusive [cytotoxic, partial curve, poor fit]
37 | CN1C[C@H](CNC(=O)OCc2ccccc2)C[C@@H]2c3cccc4c3c(cn4C)C[C@H]21 | active: 23.9 µM
38 | CN(C)C(=O)Nc1ccc(Cl)cc1 | inactive
